± gives the standard deviation of the averaged measurements. Laboratory Escherichia coli strains with one amino-acid change in an essential protein, pooled on minimal glucose agar with carbenicillin or gentamicin at twice the control MIC (plus kanamycin and chloramphenicol for the plasmids), 48 h. Fold change of barcode share against drug-free plates; higher = less susceptible. Active = above 20 in both replicates (the paper's putatively resistant). '<' = one read or none on drug, '>' = one read or none on a drug-free plate. Shares are relative, so most strains fall below 1 when a few take over. Listed are strains with at least 15 reads on both drug-free plates, and hits; most hits rest on fewer reference reads. Replicate rank correlation about 0.5. Edits are read from barcodes.
B1: aspS I34Q (protein)
chain: MRTEYCGQLRLSHVGQQVTLCGWVNRRRDLGSLQFIDMRDREGIVQVFFDPDRADALKLASELRNEFCIQVTGTVRARDEKNINRDMATGEIEVLASSLTIINRADVLPLDSNHVNTEEARLKYRYLDLRRPEMAQRLKTRAKITSLVRRFMDDHGFLDIETPMLTKATPEGARDYLVPSRVHKGKFYALPQSPQLFKQLLMMSGFDRYYQIVKCFRDEDLRADRQPEFTQIDVETSFMTAPQVREVMEALVRHLWLEVKGVDLGDFPVMTFAEAERRYGSDKPDLRNPMELTDVADLLKSVEFAVFAGPANDPKGRVAALRVPGGASLTRKQIDEYGNFVKIYGAKGLAYIKVNERAKGLEGINSPVAKFLNAEIIEDILDRTAAQDGDMIFFGADNKKIVADAMGALRLKVGKDLGLTDESKWAPLWVIDFPMFEDDGEGGLTAMHHPFTSPKDMTAAELKAAPENAVANAYDMVINGYEVGGGSVRIHNGDMQQTVFGILGINEEEQREKFGFLLDALKYGTPPHAGLAFGLDRLTMLLTGTDNIRDVIAFPKTTAAACLMTEAPSFANPTALAELSIQVVKKAENN
B2: panC M162A (protein)
chain: MLIIETLPLLRQQIRRLRMEGKRVALVPTMGNLHDGHMKLVDEAKARADVVVVSIFVNPMQFDRPEDLARYPRTLQEDCEKLNKRKVDLVFAPSVKEIYPNGTETHTYVDVPGLSTMLEGASRPGHFRGVSTIVSKLFNLVQPDIACFGEKDFQQLALIRKAVADMGFDIEIVGVPIMRAKDGLALSSRNGYLTAEQRKIAPGLYKVLSSIADKLQAGERDLDEIITIAGQELNEKGFRADDIQIRDADTLLEVSETSKRAVILVAAWLGDARLIDNKMVELA
B3: obgE V201A (protein)
chain: MKFVDEASILVVAGDGGNGCVSFRREKYIPKGGPDGGDGGDGGDVWMEADENLNTLIDYRFEKSFRAERGQNGASRDCTGKRGKDVTIKVPVGTRVIDQGTGETMGDMTKHGQRLLVAKGGWHGLGNTRFKSSVNRTPRQKTNGTPGDKRELLLELMLLADVGMLGMPNAGKSTFIRAVSAAKPKVADYPFTTLVPSLGVARMDNEKSFVVADIPGLIEGAAEGAGLGIRFLKHLERCRVLLHLIDIDPIDGTDPVENARIIISELEKYSQDLATKPRWLVFNKIDLLDKVEAEEKAKAIAEALGWEDKYYLISAASGLGVKDLCWDVMTFIIENPVVQAEEAKQPEKVEFMWDDYHRQQLEEIAEEDDEDWDDDWDEDDEEGVEFIYKR
B4: obgE V201P (protein)
chain: MKFVDEASILVVAGDGGNGCVSFRREKYIPKGGPDGGDGGDGGDVWMEADENLNTLIDYRFEKSFRAERGQNGASRDCTGKRGKDVTIKVPVGTRVIDQGTGETMGDMTKHGQRLLVAKGGWHGLGNTRFKSSVNRTPRQKTNGTPGDKRELLLELMLLADVGMLGMPNAGKSTFIRAVSAAKPKVADYPFTTLVPSLGVPRMDNEKSFVVADIPGLIEGAAEGAGLGIRFLKHLERCRVLLHLIDIDPIDGTDPVENARIIISELEKYSQDLATKPRWLVFNKIDLLDKVEAEEKAKAIAEALGWEDKYYLISAASGLGVKDLCWDVMTFIIENPVVQAEEAKQPEKVEFMWDDYHRQQLEEIAEEDDEDWDDDWDEDDEEGVEFIYKR
B5: obgE V328A (protein)
chain: MKFVDEASILVVAGDGGNGCVSFRREKYIPKGGPDGGDGGDGGDVWMEADENLNTLIDYRFEKSFRAERGQNGASRDCTGKRGKDVTIKVPVGTRVIDQGTGETMGDMTKHGQRLLVAKGGWHGLGNTRFKSSVNRTPRQKTNGTPGDKRELLLELMLLADVGMLGMPNAGKSTFIRAVSAAKPKVADYPFTTLVPSLGVVRMDNEKSFVVADIPGLIEGAAEGAGLGIRFLKHLERCRVLLHLIDIDPIDGTDPVENARIIISELEKYSQDLATKPRWLVFNKIDLLDKVEAEEKAKAIAEALGWEDKYYLISAASGLGVKDLCWDAMTFIIENPVVQAEEAKQPEKVEFMWDDYHRQQLEEIAEEDDEDWDDDWDEDDEEGVEFIYKR
B6: obgE V328Q (protein)
chain: MKFVDEASILVVAGDGGNGCVSFRREKYIPKGGPDGGDGGDGGDVWMEADENLNTLIDYRFEKSFRAERGQNGASRDCTGKRGKDVTIKVPVGTRVIDQGTGETMGDMTKHGQRLLVAKGGWHGLGNTRFKSSVNRTPRQKTNGTPGDKRELLLELMLLADVGMLGMPNAGKSTFIRAVSAAKPKVADYPFTTLVPSLGVVRMDNEKSFVVADIPGLIEGAAEGAGLGIRFLKHLERCRVLLHLIDIDPIDGTDPVENARIIISELEKYSQDLATKPRWLVFNKIDLLDKVEAEEKAKAIAEALGWEDKYYLISAASGLGVKDLCWDQMTFIIENPVVQAEEAKQPEKVEFMWDDYHRQQLEEIAEEDDEDWDDDWDEDDEEGVEFIYKR
B7: obgE V201Q (protein)
chain: MKFVDEASILVVAGDGGNGCVSFRREKYIPKGGPDGGDGGDGGDVWMEADENLNTLIDYRFEKSFRAERGQNGASRDCTGKRGKDVTIKVPVGTRVIDQGTGETMGDMTKHGQRLLVAKGGWHGLGNTRFKSSVNRTPRQKTNGTPGDKRELLLELMLLADVGMLGMPNAGKSTFIRAVSAAKPKVADYPFTTLVPSLGVQRMDNEKSFVVADIPGLIEGAAEGAGLGIRFLKHLERCRVLLHLIDIDPIDGTDPVENARIIISELEKYSQDLATKPRWLVFNKIDLLDKVEAEEKAKAIAEALGWEDKYYLISAASGLGVKDLCWDVMTFIIENPVVQAEEAKQPEKVEFMWDDYHRQQLEEIAEEDDEDWDDDWDEDDEEGVEFIYKR
B8: panB V199A (protein)
chain: MKPTTISLLQKYKQEKKRFATITAYDYSFAKLFADEGLNVMLVGDSLGMTVQGHDSTLPVTVADIAYHTAAVRRGAPNCLLLADLPFMAYATPEQAFENAATVMRAGANMVKIEGGEWLVETVQMLTERAVPVCGHLGLTPQSVNIFGGYKVQGRGDEAGDQLLSDALALEAAGAQLLVLECVPVELAKRITEALAIPAIGIGAGNVTDGQILVMHDAFGITGGHIPKFAKNFLAETGDIRAAVRQYMAEVESGVYPGEEHSFH
B9: panB L178A (protein)
chain: MKPTTISLLQKYKQEKKRFATITAYDYSFAKLFADEGLNVMLVGDSLGMTVQGHDSTLPVTVADIAYHTAAVRRGAPNCLLLADLPFMAYATPEQAFENAATVMRAGANMVKIEGGEWLVETVQMLTERAVPVCGHLGLTPQSVNIFGGYKVQGRGDEAGDQLLSDALALEAAGAQLAVLECVPVELAKRITEALAIPVIGIGAGNVTDGQILVMHDAFGITGGHIPKFAKNFLAETGDIRAAVRQYMAEVESGVYPGEEHSFH
B10: panB I200D (protein)
chain: MKPTTISLLQKYKQEKKRFATITAYDYSFAKLFADEGLNVMLVGDSLGMTVQGHDSTLPVTVADIAYHTAAVRRGAPNCLLLADLPFMAYATPEQAFENAATVMRAGANMVKIEGGEWLVETVQMLTERAVPVCGHLGLTPQSVNIFGGYKVQGRGDEAGDQLLSDALALEAAGAQLLVLECVPVELAKRITEALAIPVDGIGAGNVTDGQILVMHDAFGITGGHIPKFAKNFLAETGDIRAAVRQYMAEVESGVYPGEEHSFH
B11: panB M215Q (protein)
chain: MKPTTISLLQKYKQEKKRFATITAYDYSFAKLFADEGLNVMLVGDSLGMTVQGHDSTLPVTVADIAYHTAAVRRGAPNCLLLADLPFMAYATPEQAFENAATVMRAGANMVKIEGGEWLVETVQMLTERAVPVCGHLGLTPQSVNIFGGYKVQGRGDEAGDQLLSDALALEAAGAQLLVLECVPVELAKRITEALAIPVIGIGAGNVTDGQILVQHDAFGITGGHIPKFAKNFLAETGDIRAAVRQYMAEVESGVYPGEEHSFH
B12: panB M215A (protein)
chain: MKPTTISLLQKYKQEKKRFATITAYDYSFAKLFADEGLNVMLVGDSLGMTVQGHDSTLPVTVADIAYHTAAVRRGAPNCLLLADLPFMAYATPEQAFENAATVMRAGANMVKIEGGEWLVETVQMLTERAVPVCGHLGLTPQSVNIFGGYKVQGRGDEAGDQLLSDALALEAAGAQLLVLECVPVELAKRITEALAIPVIGIGAGNVTDGQILVAHDAFGITGGHIPKFAKNFLAETGDIRAAVRQYMAEVESGVYPGEEHSFH
B13: orn I104W (protein)
chain: MSANENNLIWIDLEMTGLDPERDRIIEIATLVTDANLNILAEGPTIAVHQSDEQLALMDDWNVRTHTASGLVERVKASTMGDREAELATLEFLKQWVPAGKSPWCGNSIGQDRRFLFKYMPELEAYFHYRYLDVSTLKELARRWKPEILDGFTKQGTHQAMDDIRESVAELAYYREHFIKL
B14: orn F127P (protein)
chain: MSANENNLIWIDLEMTGLDPERDRIIEIATLVTDANLNILAEGPTIAVHQSDEQLALMDDWNVRTHTASGLVERVKASTMGDREAELATLEFLKQWVPAGKSPICGNSIGQDRRFLFKYMPELEAYPHYRYLDVSTLKELARRWKPEILDGFTKQGTHQAMDDIRESVAELAYYREHFIKL
B15: orn F127A (protein)
chain: MSANENNLIWIDLEMTGLDPERDRIIEIATLVTDANLNILAEGPTIAVHQSDEQLALMDDWNVRTHTASGLVERVKASTMGDREAELATLEFLKQWVPAGKSPICGNSIGQDRRFLFKYMPELEAYAHYRYLDVSTLKELARRWKPEILDGFTKQGTHQAMDDIRESVAELAYYREHFIKL

What follows are proteins tested against Escherichia coli (laboratory strain) (assay: barcode share on antibiotic plates over drug-free plates; higher = less susceptible). Settings: antibiotic: gentamicin; 2× MIC (MIC 0.45 µg/mL).
Method: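 A pool of E. coli strains, each edited to carry one amino-acid change in an essential protein, was grown for 48 h on minimal glucose agar with or without antibiotic; strain barcodes were sequenced; mean of two replicates.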
For B1, the “fold change of barcode share” value was < 0.0163.
With B2 the “fold change of barcode share” value was < 0.0187.
B3 was tested, and the “fold change of barcode share” value was < 0.0096.
In the case of B4, the “fold change of barcode share” value is reported as < 0.0135.
B5 was tested, and the “fold change of barcode share” value was < 0.0163.
B6 was tested, and the “fold change of barcode share” value was < 0.0208.
With B7 the “fold change of barcode share” value was < 0.0146.
With B8 the “fold change of barcode share” value was 0.00457 ± 0.0016.
In the case of B9, the “fold change of barcode share” value is reported as 0.0107 ± 0.0042.
B10 was tested, and the “fold change of barcode share” value was 0.114 ± 0.0054.
In the case of B11, the “fold change of barcode share” value is reported as < 0.0167.
B12 was tested, and the “fold change of barcode share” value was < 0.0146.
B13 was tested, and the “fold change of barcode share” value was < 0.0226.
With B14 the “fold change of barcode share” value was < 0.00817.
In the case of B15, the “fold change of barcode share” value is reported as 0.0185 ± 0.006.

From the supplement of paper PMC11876631
